# Source: PubChem BioAssay AID1476 (National Center for Advancing Translational Sciences (NCATS), 2009)
# The whole screen tested about 200,000 compounds, of which about 4,500 (2.2%) were called active. The inconclusive results got no clear call from the source; some entries with a clear call stand among them for comparison. Calls follow the shape of the dose curve; as a rule, active = well fitted inhibition curve with a large enough effect; inconclusive = small, poorly fitted or top-dose-only effect, or effect the other way; inactive = flat fitted curve, though single readings scatter. Where the call is inconclusive, the potency comes from a doubtful curve fit.
# Biological target: Cruzipain (Trypanosoma cruzi) (UniProt P25779)
# Chain of UniProt P25779 (P25779 whole entry, looked up): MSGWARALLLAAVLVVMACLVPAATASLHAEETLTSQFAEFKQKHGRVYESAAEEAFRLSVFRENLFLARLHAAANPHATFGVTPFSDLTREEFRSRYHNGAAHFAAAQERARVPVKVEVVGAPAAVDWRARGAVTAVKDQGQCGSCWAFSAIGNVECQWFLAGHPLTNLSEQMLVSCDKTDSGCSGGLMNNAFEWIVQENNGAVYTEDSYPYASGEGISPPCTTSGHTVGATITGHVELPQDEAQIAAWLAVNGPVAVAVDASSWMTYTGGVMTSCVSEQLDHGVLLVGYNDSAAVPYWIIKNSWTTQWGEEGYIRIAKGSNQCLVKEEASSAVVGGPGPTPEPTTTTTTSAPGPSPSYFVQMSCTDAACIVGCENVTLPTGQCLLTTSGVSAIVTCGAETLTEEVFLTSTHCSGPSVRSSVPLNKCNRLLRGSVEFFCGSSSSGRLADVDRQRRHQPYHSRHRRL
# Experiment: qHTS Assay for Promiscuous and Specific Inhibitors of Cruzain (without detergent); also: nearly all actives have a fitted effect of over 40% in size;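 as to max response, negative = inhibition: plate controls were enzyme without inhibitor for no effect and buffer without enzyme for full effect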
# Conditions: purified cruzain, Z-FR-AMC fluorescence, no detergent
# Summary of the method: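 Detergent-free condition (0.00005% Triton X-100) in acetate buffer pH 5.5 with DTT. 1.5 nM enzyme and compound were pre-mixed 15 min, then 2 uM Z-FR-AMC substrate added; reaction progress from fluorescence change between first and third reads (60 s).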
# Potency is read from the fitted curve at half-maximal effect; tags tell the direction and shape of the fitted curve.
SMILES,"max response, negative = inhibition",Potency
O=C(NCC1CCCO1)c1cnn2c1NC(c1ccccc1)CC2C(F)(F)F (centres undefined),inactive: 9.62%,–
Cc1nc2c(-c3ccc(F)cc3)c(C)nn2c(C)c1CCC(=O)N1CCN(c2ccccn2)CC1,–,"inconclusive: 10 µM [activator, partial curve]"
Cc1noc(C)c1S(=O)(=O)NCCc1csc2nc(-c3ccc(F)cc3)nn12,inactive: 12.2%,–
CN1/C(=C/C=C(/C#N)C(N)=O)C(C)(C)c2ccccc21,inactive: -27.1%,–
Cc1cccc2cc(COC(=O)c3ccco3)c(=O)[nH]c12,inactive: -0.177%,–
O=C(COc1ccc(/C=N/NC(=O)CSCc2ccc([N+](=O)[O-])cc2)cc1)NCc1ccco1,inactive: -5.09%,–
CCC1=C(OC(=O)N(CC)CC)N2C(=O)OC(=NCCc3c[nH]c4ccccc34)[C@]2(Cc2ccccc2)[C@H]2C1=CC[C@H]1C(=O)N(CC(=O)OC)C(=O)[C@H]12,–,"inconclusive: 15.8 µM [activator, partial curve]"
COc1ccc(NC(=O)CSc2nc(-c3ccc(C)cc3)cc(C(F)(F)F)c2C#N)cc1,–,"inconclusive: 5.01 µM [inhibitor, full curve]"
COc1c(Br)cc(Br)cc1/C=N/n1c(C)nnc1C,–,"inconclusive: 25.1 µM [activator, single point]"
COc1cc2c(cc1OC)C1=C(C#N)CC/C(=N\S(=O)(=O)c3ccccc3)N1CC2,–,"inconclusive: 39.8 µM [activator, single point]"
O=C(Nc1ccc(N2CCCC2)cc1)c1cccc(F)c1,–,"inconclusive: 31.6 µM [inhibitor, single point]"
Cc1ccc(CN2CC(C(=O)Nc3cccc(S(=O)(=O)N4CCCCC4)c3)CC2=O)cc1 (centres undefined),–,"inconclusive: 39.8 µM [activator, single point]"
CCOc1ccc(NC(=O)c2ccc(NC(=O)COC(=O)Cc3ccccc3)cc2)cc1,–,"inconclusive: 39.8 µM [inhibitor, single point]"
O=C(O)C1CC2(C1)CC(C(=O)O)C2 (centres undefined),inactive: 3.56%,–
O=c1oc(-c2cc3ccccc3o2)nc2sc3c(c12)CCCC3,–,"inconclusive: 39.8 µM [inhibitor, single point]"
Cc1ccc(N2CC(NC(=O)c3ccc(Br)o3)CC2=O)cc1C (centres undefined),inactive: -8.34%,–
CC(NC(=O)C(=O)Nc1c2c(nn1-c1ccccc1)CSC2)c1ccccc1 (centres undefined),–,"inconclusive: 39.8 µM [inhibitor, single point]"
COc1ccc(OC)c(C2C(C(=O)c3cc4ccccc4o3)=C(O)C(=O)N2c2cc(C)on2)c1 (centres undefined),–,"inconclusive: 39.8 µM [activator, single point]"
CC(C)Sc1nc(N2CCOCC2)c2c3c(sc2n1)COC(C)(C)C3,–,"inconclusive: 39.8 µM [activator, single point]"
Cc1ccccc1-c1cncnc1NCc1cccnc1,inactive: 2.27%,–
N#Cc1nc(-c2cccs2)oc1NCc1ccccc1Cl,–,"inconclusive: 25.1 µM [activator, single point]"
Cc1ccc(S(=O)(=O)NCC(c2ccco2)N2CCN(c3ccccc3F)CC2)cc1 (centres undefined),inactive: 5.38%,–

SMILES,"max response, negative = inhibition",Potency
COC(=O)N1CCC2(CCN(Cc3cc(C(F)(F)F)cc(C(F)(F)F)c3)CC2)CC1,inactive: 15.5%,–
CCN(CC)S(=O)(=O)c1cccc(-c2nnc(SCc3ncc(-c4ccccc4)o3)n2C)c1,–,"inconclusive: 31.6 µM [activator, single point]"
Cc1cccc(CS(=O)(=O)Cc2ccc(C(=O)NC(C)c3ccccc3)o2)c1 (centres undefined),inactive: 13.4%,–
Cc1ccc2c(c1)-c1c(c(C(=O)NCCc3ccccc3)nn1C)CS2,inactive: -29.2%,–
Cc1ccc(C)c(OCC(=O)Nc2nc3ccc([N+](=O)[O-])cc3s2)c1C,–,"inconclusive: 39.8 µM [inhibitor, single point]"
O=C(OCC(=O)N1c2ccccc2Sc2ccccc21)C1CC(=O)N(Cc2ccco2)C1 (centres undefined),–,"inconclusive: 31.6 µM [activator, single point]"
COc1ccc(-c2nc(C)c(CCNC(=O)c3cc(OC)c(OC)c(OC)c3)s2)cc1OC,–,"inconclusive: 39.8 µM [activator, single point]"
CC(=O)Nc1cccc(Oc2ncnc3scc(-c4ccccc4)c23)c1,–,"inconclusive: 31.6 µM [activator, single point]"
COc1ccc(OC)c2sc(N(Cc3cccnc3)C(=O)c3ccc(C(C)=O)cc3)nc12,–,"inconclusive: 3.98 µM [activator, full curve]"
CCCCCCOc1ccc(OCC(O)CN2C(=O)NC(C)(C)C2=O)cc1 (centres undefined),–,"inconclusive: 25.1 µM [activator, single point]"
COC(=O)C1=C(C)N=c2s/c(=C/c3cccs3)c(=O)n2C1c1ccc(F)cc1 (centres undefined),–,"inconclusive: 25.1 µM [inhibitor, partial curve, poor fit]"
O=C(Nc1ccc2nn(-c3ccccc3)nc2c1)c1ccc2c(c1)OCO2,–,"inconclusive: 39.8 µM [inhibitor, single point]"
COc1ccc(C2/C=C\CC(NC(=O)OCC3c4ccccc4-c4ccccc43)CC(=O)N2Cc2ccccc2F)cc1 (centres undefined),–,active: 12.6 µM
COc1cccc(C(c2c(O)cc(C)n(Cc3ccco3)c2=O)N2CCC(C)CC2)c1 (centres undefined),–,"inconclusive: 39.8 µM [inhibitor, single point]"
CCOC(=O)c1oc2ccccc2c1NC(=O)c1ccc(S(=O)(=O)N(C)C)cc1,inactive: -11.1%,–
COc1ccc(S(=O)(=O)N/N=C\c2ccc(OC)c(COc3ccc(C)cc3[N+](=O)[O-])c2)cc1,–,"inconclusive: 31.6 µM [inhibitor, single point]"
CC(C)CN(CC(C)C)c1ccc(C=C2C(=O)NC(=S)NC2=O)cc1[N+](=O)[O-],–,"inconclusive: 39.8 µM [activator, single point]"
Cc1ccc(NC(=O)CSc2nc(-c3cccs3)cc(C(F)(F)F)n2)cc1C,inactive: 0.375%,–
COc1cc(-c2noc(-c3ccc(NC4CCCCC4)c([N+](=O)[O-])c3)n2)cc(OC)c1OC,–,"inconclusive: 31.6 µM [inhibitor, single point]"
COc1ccc(CNc2nc(-c3cccc(C#N)c3)nc3ccccc23)c(OC)c1,–,"inconclusive: 39.8 µM [inhibitor, single point]"
Cc1nnc(SCc2ccccc2Cl)c2cc3occc3n12,–,"inconclusive: 39.8 µM [activator, single point]"
O=C(COc1ccccc1[N+](=O)[O-])N/N=C/c1cccc(OC(=O)c2ccc3c(c2)OCO3)c1,–,"inconclusive: 39.8 µM [inhibitor, single point]"

SMILES,"max response, negative = inhibition",Potency
Cc1cc(Nc2ccc(C(C)C)cc2)nc(-n2nc(C)cc2C)n1,–,"inconclusive: 31.6 µM [activator, single point]"
CC1=NN(c2ccc(C)cc2)C(=O)/C1=C\C=C\c1ccccc1,–,"inconclusive: 31.6 µM [activator, single point]"
Cc1ccccc1C1C(C#N)=C2N=C(N)c3c(sc4c3CCCCC4)N2C2=C1C(=O)CC(C)(C)C2 (centres undefined),–,"inconclusive: 25.1 µM [inhibitor, partial curve, poor fit]"
CCCCCCc1cc2cc(C(N)=O)c(=N)oc2cc1O,–,"inconclusive: 7.94 µM [activator, single point]"
CCOC(=O)c1c(NC(=O)c2ccccc2Br)sc2c1CCc1ccccc1-2,–,active: 15.8 µM
COc1ccccc1-n1ncc2c(=O)[nH]c(SCC(=O)Nc3cccc(F)c3)nc21,inactive: -7.87%,–
CCCCNS(=O)(=O)c1ccc2nc(SCC(=O)Nc3sccc3C#N)[nH]c2c1,–,"inconclusive: 31.6 µM [inhibitor, partial curve, poor fit]"
CSc1cccc(N2C(=O)N(CC(=O)NCc3ccccc3Cl)c3ccccc3S2(=O)=O)c1,inactive: -15.9%,–
O=C(Nc1cc(-c2nc3ccccc3s2)ccc1Cl)c1ccc2c(c1)OCO2,–,"inconclusive: 39.8 µM [inhibitor, single point]"
Cc1ccc(OCCCN2C(=O)C(=O)c3cccc(C)c32)cc1,–,"inconclusive: 39.8 µM [activator, single point]"
O=C(c1ccncc1)N1CCC2(CCCN(c3ccc(-c4ccccc4)cc3)C2)CC1,–,"inconclusive: 39.8 µM [activator, single point]"
COc1cc(Cl)c(C)cc1Nc1c2c(nc3ccccc13)CCC2,inactive: -23.2%,–
COc1cc(-n2c(=O)c3ccccc3n(Cc3cc(=O)n4ccccc4n3)c2=O)cc(OC)c1OC,–,"inconclusive: 31.6 µM [activator, single point]"
Cc1cc(-c2csc(NC(=O)c3cc4ccccc4o3)n2)c(C)n1C,–,active: 15.8 µM
CCOc1ccccc1CNC(=O)CN1C(=O)CCn2nc(-c3cn(C)c4ccccc34)cc21,–,"inconclusive: 25.1 µM [activator, single point]"
O=C(COc1ccc2oc(-c3ccccc3)cc(=O)c2c1)Nc1ccccc1,–,active: 31.6 µM
OC[C@H]1O[C@@H](n2cnc3c(N[C@H]4CC5CCC4C5)ncnc32)[C@H](O)[C@@H]1O (some centres undefined),–,"inconclusive: 1.58 µM [inhibitor, single point]"
CCSc1nnc2c(n1)OC(c1ccc(OCC(=O)O)cc1)Nc1ccccc1-2 (centres undefined),inactive: -6.38%,–
Cn1c(=O)c(=O)n(C)c2cc(N3CCCC3)c(NC(=O)c3ccc(C(C)(C)C)cc3)cc21,inactive: -3.76%,–
COc1cccc(CNC(=O)CN(c2ccc(C(C)C)cc2)S(=O)(=O)c2c(C)n[nH]c2C)c1,–,"inconclusive: 20 µM [activator, single point]"
